Test results published in PubChem BioAssay (Tox21).
Several values for one entry are separate records, joined by “and”; a condition that tells them apart may be missing. Equal entries are not always repeated. The shares of active, inactive and inconclusive entries below differ from those in the screen. Potencies of inconclusive entries are doubtful fits and often do not repeat. A structure can be active in one record and inactive in another. Activity calls are given as the source filed them. Calls come from the whole dose curve; as a rule, active = well fitted cell-killing curve with a large enough effect in the repeat runs; inconclusive = weak or mixed curves, or effect the other way; inactive = no such curve, though single readings can be large or run the other way.

Experiment: qHTS assay for identifying genotoxic compounds that show differential cytotoxicity against isogenic chicken DT40 cell lines with known DNA damage response pathways - Rev3 mutant cell line (AID 743014); note: nearly all actives have a fitted effect of over 55% in size
Conditions: chicken DT40 Rev3-/- viability, CellTiter-Glo, 40 h; activity, negative = cytotoxicity: at 68.4 µM (top of the series)
% is set by controls: 0 for no effect and ±100 for the full control effect; potency is the fitted concentration of half-maximal effect; tags give direction and shape of the fitted curve.

SMILES	Potency	activity, negative = cytotoxicity
CCN(CCN)c1cccc(C)c1	inconclusive: 69.2 µM [cytotoxic] and inconclusive: 68.6 µM [cytotoxic, single point]	
CCC(=O)OC		inactive: 9.38% [at 95 µM]
Nc1ccc2cc3ccccc3cc2c1	inconclusive: 2.48 µM [cytotoxic, full curve] and inconclusive: 770 nM [cytotoxic, full curve]	
COC(=O)Nc1nc2ccc(C(=O)c3ccccc3)cc2[nH]1	active: 0.32 µM	
C[C@@H](O[C@H]1OCCN(Cc2n[nH]c(=O)[nH]2)[C@H]1c1ccc(F)cc1)c1cc(C(F)(F)F)cc(C(F)(F)F)c1	inconclusive: 33.5 µM [cytotoxic, single point]	
O=C(CCN1CCC(c2ccccc2)C1)c1ccc2c(c1)OCCO2 (stereo not given)	active: 4.73 µM	
O=S(=O)(Oc1ccc(Cl)cc1Cl)c1ccccc1	inconclusive: 69.8 µM [cytotoxic] and inconclusive: 30.6 µM [cytotoxic, full curve]	
OC(CCN1CCCC1)(c1ccccc1)C1CCCCC1 (stereo not given)	inconclusive: 9.02 µM [cytotoxic, partial curve]	
c1ccc2sc(SN(C3CCCCC3)C3CCCCC3)nc2c1	inconclusive: 17 µM [cytotoxic, partial curve, poor fit]	
CC[C@]1(O)C[C@@H]2CN(CCc3c([nH]c4ccccc34)[C@@](C(=O)OC)(c3cc4c(cc3OC)N(C)[C@H]3[C@@](O)(C(=O)OC)[C@H](OC(C)=O)[C@]5(CC)C=CCN6CC[C@]43[C@@H]65)C2)C1	active: 53.1 nM and active: 29.8 nM	
Cc1c(F)c(N2CCNC(C)C2)cc2c1c(=O)c(C(=O)O)cn2C1CC1 (stereo not given)	inconclusive: 29.8 µM [rising, partial curve, poor fit]	
CC1(C)CC(OC(=O)CCCCCCCCC(=O)OC2CC(C)(C)NC(C)(C)C2)CC(C)(C)N1		inactive: -1.13% [at 31.4 µM]
O=C(Nc1cccc(Cl)c1)OCC#CCCl	active: 21.7 µM	
CN1CC[C@H](c2c(O)cc(O)c3c(=O)cc(-c4ccccc4Cl)oc23)[C@H](O)C1	active: 0.15 µM	
c1ccc(C[n+]2cccc3ccccc32)cc1	active: 27.3 µM	
COc1cc(N)c(Cl)cc1C(=O)NC1CCN(CCCOc2ccc(F)cc2)CC1OC (stereo not given)	inconclusive: 12.7 µM [cytotoxic]	
CC(C)(C)C(=O)C1C(=O)c2ccccc2C1=O	inactive and active: 13.7 µM	
C=Cc1ccc(S(=O)(=O)O)cc1	inactive and active: 38.6 µM	
N=C1N=C(N)c2ccccc21	active: 17.2 µM	
CN(C)CCN1C(=O)c2ccccc2N(C)c2ccccc21		inactive: -14.3%

SMILES	Potency	activity, negative = cytotoxicity
O=C1Cc2ccccc2N1c1c(Cl)cccc1Cl	active: 34.4 µM	
CCCCCCNC(=O)n1cc(F)c(=O)[nH]c1=O	inconclusive: 13.3 µM [cytotoxic, full curve]	
CC(C)n1nc(-c2cc3cc(O)ccc3[nH]2)c2c(N)ncnc21	active: 2.37 µM	
CCCCCCC(=O)c1ccccc1	inconclusive: 68.6 µM [cytotoxic, partial curve, poor fit]	
C=C(C)[C@@H]1CCC2=CCC[C@@H](C)[C@]2(C)C1	active: 27.3 µM	
CCO[Si](CC(C)C)(OCC)OCC	active: 24.3 µM	
CCC=CC#N		inactive: 11.4%
Oc1ccc2ccccc2c1N=Nc1ccccc1	inconclusive: 12.2 µM [cytotoxic, partial curve, poor fit]	
COC(=O)/C=C/c1ccccc1	inconclusive: 54.5 µM [cytotoxic, single point]	
CC(C)N=C(N)/N=C(\N)Nc1ccc(Cl)cc1	active: 12.7 µM	
CCCCCCOc1ccccc1C(N)=O	active: 21.1 µM	
Oc1ccc2c(c1)OCO2	active: 54 µM	
CC(COCC(C)OC(=O)c1ccccc1)OC(=O)c1ccccc1 (stereo not given)	inconclusive: 27.3 µM [cytotoxic, partial curve, poor fit]	
CCC(O)C(C)(C)C (stereo not given)		inactive: 6.81% [at 95 µM]
CCN(Cc1cccc(S(=O)(=O)O)c1)c1ccc(C(=C2C=CC(=[N+](CC)Cc3cccc(S(=O)(=O)O)c3)C=C2)c2ccccc2S(=O)(=O)[O-])cc1	active: 17.3 µM	
C=CC(=O)NC(C)(C)CS(=O)(=O)O	inconclusive: 69.6 µM [cytotoxic, single point]	
OC[C@H]1O[C@@H](n2cnc3c(=S)nc[nH]c32)[C@H](O)[C@@H]1O	inconclusive: 26.6 µM [cytotoxic, partial curve]	
Nc1nc(-c2ccccc2)cs1	inconclusive: 76.7 µM [cytotoxic, single point]	
C=CC(=C)CCCC(C)(C)OC(C)=O		inactive: -5.02%
CN(Cc1cnc2nc(N)nc(N)c2n1)c1ccc(C(=O)N[C@@H](CCC(=O)O)C(=O)O)cc1	active: 11.9 nM and active: 1.7 nM	
